In PubChem BioAssay AID588342 (National Center for Advancing Translational Sciences (NCATS), 2011):
The whole screen tested about 360,000 compounds, of which about 25,000 (6.9%) were called active. The shares of active, inactive and inconclusive entries below differ from those in the screen. Calls come from the whole dose curve; as a rule, active = well fitted inhibition curve with a large enough effect; inconclusive = small, poorly fitted or top-dose-only effect; inactive = flat fitted curve, though single readings scatter. Potencies of inconclusive entries are doubtful fits and often do not repeat.

Molecular target: Luciferin 4-monooxygenase (Photinus pyralis) (UniProt P08659)
Chain of UniProt P08659 (P08659 whole entry, looked up): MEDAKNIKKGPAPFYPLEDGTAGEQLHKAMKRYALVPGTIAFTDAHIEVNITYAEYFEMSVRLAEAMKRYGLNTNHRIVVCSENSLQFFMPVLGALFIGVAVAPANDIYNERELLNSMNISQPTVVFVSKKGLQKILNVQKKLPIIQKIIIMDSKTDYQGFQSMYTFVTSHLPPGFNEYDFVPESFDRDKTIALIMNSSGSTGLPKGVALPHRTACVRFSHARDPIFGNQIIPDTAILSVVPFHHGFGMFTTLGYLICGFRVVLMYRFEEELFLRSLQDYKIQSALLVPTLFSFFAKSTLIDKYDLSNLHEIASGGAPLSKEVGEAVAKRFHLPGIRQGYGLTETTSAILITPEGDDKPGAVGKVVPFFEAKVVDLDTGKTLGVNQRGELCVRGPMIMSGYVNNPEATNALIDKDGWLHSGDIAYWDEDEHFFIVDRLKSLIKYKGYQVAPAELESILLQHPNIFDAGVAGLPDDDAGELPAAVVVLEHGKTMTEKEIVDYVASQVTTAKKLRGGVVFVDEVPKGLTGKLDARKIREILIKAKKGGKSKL
Assay: qHTS profiling assay for firefly luciferase inhibitor/activator using purifed enzyme and Km concentrations of substrates (counterscreen for miR-21 project); note: nearly all actives have a fitted effect of over 55% in size;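 for activity change, negative = inhibition: plate controls were vehicle for no effect and reference inhibitor for full effect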
Conditions: purified FLuc, luminescence inhibition; series mostly up to 57.5 µM; activity change, negative = inhibition: at the top concentration
Outline: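 Purified P. pyralis luciferase, 10 nM final, with Km-level 10 uM D-luciferin and 10 uM ATP in 50 mM Tris acetate pH 7.5, 10 mM Mg acetate, 0.01% Tween-20, 0.05% BSA; 6-point qHTS titration about 60 µM downward; luminescence read.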
Potency is the fitted concentration of half-maximal effect; tags give direction and shape of the fitted curve.

Structure (SMILES)	Potency	activity change, negative = inhibition
CN(C)c1ccc(/C=C/C(=O)c2ccc3c(c2)OCO3)cc1	active: 2.69 µM	
Cc1nc(N2CCOCC2)c2c(C(=O)NCCc3ccccc3)c(C)oc2n1		inactive: -9.79%
Cc1cc(C(=O)OC2CCOC2=O)c2ccccc2n1 (configuration not stated)		inactive: 0.757%
Cc1ccc(C)c(OCC(=O)Nc2cc(NC(=O)COc3cc(C)ccc3C)cc(C(=O)O)c2)c1	inconclusive: 26.9 µM [inhibitor, partial curve, poor fit]	
Cc1ccc(NC(=O)c2ccccc2)cc1-n1cnnn1	inconclusive: 21.3 µM [inhibitor, partial curve, poor fit]	
Cc1ccc2oc(-c3cccc(NC(=S)NC(=O)/C=C/c4ccco4)c3)nc2c1	active: 15.1 µM	
CC(C(=O)O)N1C(=O)/C(=C/C=C/c2ccco2)SC1=S (configuration not stated)	active: 16.9 µM	
COc1ccc2[nH]c3c(=O)n(Cc4ccc(C(=O)N5CCCC5)cc4)c(=S)[nH]c3c2c1	inconclusive: 7.57 µM [inhibitor, full curve]	
CCOc1cc(/C=C2/SC(=S)N(Cc3ccccc3)C2=O)ccc1O	inconclusive: 26.9 µM [inhibitor, single point]	
O=C(Nc1ccc(F)cc1F)C(Cc1ccccc1)N1Cc2ccccc2C1=O (configuration not stated)		inactive: -6.52%
Cc1ccccc1OCC(=O)N/N=C/c1c(C)nn(-c2ccccc2)c1Cl	inconclusive: 6.01 µM [inhibitor, partial curve, poor fit]	
COc1ccc2oc(C(=O)NCCc3ccccc3)c(C)c2c1	inconclusive: 3.38 µM [inhibitor, full curve, poor fit]	
Cc1cc(=O)n(CC(=O)NC2CC2)c2c1c(C)nn2-c1ccccc1		inactive: -5.74%
CCOc1ccc(C2c3[nH]c4ccccc4c3CCN2Cc2cn(CC)nc2C)cc1 (configuration not stated)	inconclusive: 37.9 µM [inhibitor, partial curve, poor fit]	
COC(=O)Nc1ccc2c(c1)ncn2C1CCCCC1	active: 16.9 µM	
Cc1ccc(CC(=O)NCc2ccc3c(c2)OCO3)cc1	inconclusive: 37.9 µM [inhibitor, partial curve, poor fit]	
CC(C)NC(=O)Cn1cc(C(=O)COc2ccccc2)c2ccccc21	inconclusive: 15.1 µM [inhibitor, partial curve]	
O=C(Nc1ccc(F)cc1)c1cccnc1NCCc1ccccc1	inconclusive: 23.9 µM [inhibitor, single point]	
COc1cc2c(=O)n(Cc3ccccc3Cl)c(=O)n(CC(=O)Nc3ccccc3)c2cc1OC		inactive: -0.866%
FC(F)(F)c1ccc(N/N=C/c2cccnc2)nc1	inconclusive: 19 µM [inhibitor, single point]	
CCN(CC)C(=O)CSc1nc(C)cc(-c2cccs2)c1C#N	inconclusive: 23.9 µM [inhibitor, partial curve, poor fit]	
Cc1ccc(OCC(=O)N/N=C/c2c[nH]c3ccccc23)c([N+](=O)[O-])c1	inconclusive: 9.53 µM [inhibitor, partial curve]	
COc1ccc(/C=C2\CCCC3C2=NN(C(=O)CSc2n[nH]c(N)n2)C3c2ccc(OC)cc2)cc1 (configuration not stated)	inconclusive: 23.9 µM [inhibitor, single point]	
CCOC(=O)c1ccc(NS(=O)(=O)c2ccc(-c3cc(C)no3)cc2)cc1	inconclusive: 23.9 µM [inhibitor, partial curve, poor fit]	

Structure (SMILES)	Potency	activity change, negative = inhibition
Cc1cc(C)c(OCC(=O)N(Cc2ccco2)Cc2ccco2)c(C)c1		inactive: -18%
O=C(CSc1cccs1)Nc1ccc(Cl)cc1	inconclusive: 26.9 µM [inhibitor, single point]	
Cc1ccc(CNC(=O)CSc2ccc(-c3cccs3)nn2)cc1		inactive: -0.815%
CCCCC(=O)NNC(=S)NC(=O)c1ccc([N+](=O)[O-])cc1	inconclusive: 37.9 µM [inhibitor, partial curve, poor fit]	
CCC(COC(=O)Nc1cccc(C)c1)NC(=O)OCC(C)C (configuration not stated)	inconclusive: 23.9 µM [inhibitor, partial curve]	
O=C(c1ccc(COc2ccccc2[N+](=O)[O-])o1)N1CCCCC1	inconclusive: 37.9 µM [inhibitor, partial curve, poor fit]	
COc1ccccc1CCNC(=O)c1ccc(-c2nc(CSc3ccc(C)cc3)c(C)o2)cc1		inactive: -12.2%
Cc1nc(N)sc1N=Nc1ccc(Br)cc1	active: 4.26 µM	
COc1ccccc1/C=C1/SC(=S)N(C(C)C(=O)NC2C=CS(=O)(=O)C2)C1=O (configuration not stated)	inconclusive: 37.9 µM [inhibitor, partial curve, poor fit]	
CCc1ccc(/C=N/NC(=O)c2cc(-c3cccc([N+](=O)[O-])c3)n[nH]2)cc1		inactive: 0.321%
CCCCNC(=O)C(Cc1ccccc1)NS(=O)(=O)c1ccc2c(c1)c(=O)n(C)c(=O)n2C (configuration not stated)	inactive	
Cc1ccccc1-c1noc(-c2ccc(Cl)cc2)n1	active: 1.07 µM	
Cc1nc2cc(C(F)(F)F)ccc2n1C	inconclusive: 30.1 µM [inhibitor, partial curve, poor fit]	
O=C(COC(=O)c1cc(NS(=O)(=O)c2cccs2)ccc1O)Nc1ccc(F)c(F)c1F	inconclusive: 19 µM [inhibitor, partial curve, poor fit]	
CCOc1ccc(-c2ncnn2-c2sc3c(c2C#N)CCCCC3)cc1	inconclusive: 3.01 µM [inhibitor, full curve]	
Cc1ccc(C(=O)O)cc1N=Cc1cc(Br)cc(Br)c1O		inactive: 3.23%
O=c1c2c3c(sc2nc2sc(C4CC4)nn12)CCCC3	active: 3.01 µM	
CSc1ncc(C(=O)N2CCN(c3cc(C)ccc3C)CC2)c(C)n1		inactive: -7.25%
CC(C)CCn1cnc2c(NCc3ccccc3)ncnc21	inconclusive: 23.9 µM [inhibitor, partial curve, poor fit]	
CC(C)c1ccc2oc(-c3ccc(NC(=O)c4ncn[nH]4)cc3)nc2c1	active: 1.51 µM	
O=C(COc1ccccc1Cl)Nc1ccc(C(=O)c2ccc(C(=O)O)cc2)cc1	inconclusive: 23.9 µM [inhibitor, partial curve, poor fit]	
CCOC(=O)C1CCN(C(=O)Nc2ccc3nccnc3c2)CC1	inconclusive: 26.9 µM [inhibitor, partial curve, poor fit]	
O=C(CSc1cccs1)NCCc1ccccc1	inconclusive: 23.9 µM [inhibitor, partial curve, poor fit]	
O=C(NCc1cccs1)Nc1ccc(Cl)cc1	inconclusive: 37.9 µM [inhibitor, single point]	

Structure (SMILES)	Potency	activity change, negative = inhibition
CSc1ccccc1NC(=O)c1cnc2scc(C)n2c1=O	inconclusive: 21.3 µM [inhibitor, partial curve]	
Cc1cc(/C=c2/sc3nc4ccccc4n3c2=O)c(C)n1-c1ccccn1	active: 0.135 µM	
O=C(O)CN1C(=O)/C(=C/c2ccccc2Br)Oc2ccccc21	inconclusive: 26.9 µM [inhibitor, single point]	
CCCCOc1cccc(C(=O)Nc2cccc(-c3nc4ncccc4o3)c2C)c1	inconclusive: 7.57 µM [inhibitor, partial curve, poor fit]	
CC(OC(=O)C1=COCCO1)C(=O)Nc1ccc(Cl)cn1 (configuration not stated)		inactive: 3.69%
COC(=O)/C(C#N)=C1/C=Cc2ccccc2N1C	inconclusive: 23.9 µM [inhibitor, partial curve, poor fit]	
O=C(O)/C=C/c1cnn(-c2ccccc2)c1	active: 1.51 µM	
Cc1c(C(=O)NCCCN2CCCC2=O)oc2ccccc12	inconclusive: 37.9 µM [inhibitor, partial curve, poor fit]	
COc1ccc(NC(=S)N2CCC(C(=O)c3ccc(OC)cc3)CC2)cc1	active: 12 µM	
Cc1ccc(S(=O)(=O)ON2C(=O)c3cccc4cccc(c34)C2=O)cc1	inconclusive: 26.9 µM [inhibitor, single point]	
O=C(NO)c1ccccc1O		inactive: 9.06%
O=C(/C=C/c1c(Cl)cccc1Cl)Nc1ccncc1	active: 3.01 µM	
O=C(N/N=C/c1cccnc1)c1cccs1	inconclusive: 16.9 µM [inhibitor, partial curve]	
CC1CCCN(CCCNC(=O)c2coc3nc4ccccc4nc23)C1 (configuration not stated)	inconclusive: 13.5 µM [inhibitor, partial curve]	
O=C(N/N=C/c1ccc(F)cc1)c1ccccc1	active: 12 µM	
CC(C)NC(=O)c1[nH]nc2c1CCc1ccccc1-2	active: 19 µM	
O=S(=O)(NCCNc1ncc(C(F)(F)F)cc1Cl)C(F)(F)F	inconclusive: 21.3 µM [inhibitor, single point]	
Cn1nnnc1SCc1nc2ccccc2s1	inconclusive: 37.9 µM [inhibitor, partial curve, poor fit]	
Cc1ccc(/C=C2\CCCC3=C2NC(=S)NC3c2ccc(C)cc2)cc1 (configuration not stated)		inactive: -8.11%
CN(c1ccccc1)S(=O)(=O)c1cccc(NC(=O)c2cc3ccccc3oc2=O)c1	inconclusive: 30.1 µM [inhibitor, single point]	
Cc1ccc(-c2cc(C(=O)NCc3ccco3)no2)cc1	inconclusive: 0.953 µM [inhibitor, full curve]	
Cc1nn(-c2ccccc2)c2c1N(CC(=O)N1CCN(c3ccc(F)cc3)CC1)C(=O)CS2		inactive: -2.09%
O=C(N/N=C/c1ccc2c(c1)OCO2)c1cc(-c2ccccc2Cl)nc2ccccc12	inconclusive: 16.9 µM [inhibitor, partial curve]	
Cc1cc(-c2csc(NC(=O)c3cccc(S(=O)(=O)N(C)C)c3)n2)c(C)n1-c1ccccc1	inconclusive: 12 µM [inhibitor, partial curve]	
